In the supplement of paper PMC8183993:
Counter-ions that a name gives are not always drawn. ± gives the standard deviation of the averaged measurements. In all, about 3,100 compounds were measured (“mean cytoplasmic OPP incorporation (global translation) relative to DMSO”: median about 100, lowest 2% from about 56 on). This is one part of the list.

These compounds were tested on U2OS (assay: mean cytoplasmic OPP incorporation (global translation) relative to DMSO (% of DMSO); higher = more protein synthesis). Settings: 10 µM; 24 h.
Procedure: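 Primary image-based screen in U2OS cells: compounds at 10 uM for 24 h, then a 1 h o-propargyl-puromycin (OPP) pulse, click labelling, and high-throughput microscopy. Mean cytoplasmic OPP intensity and nuclei count were normalised to DMSO wells within each plate (DMSO = 100) and averaged over triplicate plates.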

SMILES | mean cytoplasmic OPP incorporation
CC(=O)Oc1ccccc1C(=O)Nc1ncc([N+](=O)[O-])s1 [Nitazoxanide (Alinia, Annita)] | 106
O=Cc1c2[nH]c3ccccc3c2cc2[nH]c3ccccc3c12 [6-Formylindolo [3,2-B] carbazole] | 92.9
COc1c(C)c(C(=O)c2ccc(N)c(C(=O)O)c2)n2ccccc12 | 105
CCCCC/N=c1\ccn(Cc2ccccc2)c2ccccc12 | 96.1
O=C1c2c(O)cccc2Cc2cccc(O)c21 [Anthralin] | 94.4
CN1c2cc3c(cc2N=C(c2ccc(C(=O)O)cc2)c2ccccc21)C(C)(C)CCC3(C)C | 99.4
COc1nccc(-c2c(-c3ccc(F)cc3)ncn2C2CCC(O)CC2)n1 (configuration not stated) | 90.8
O/N=C/c1ccc(-c2ccc(O)c(F)c2)c(Cl)c1O | 105
N=C(NC(=O)c1nc(Cl)c(N)nc1N)Nc1ccccc1 [Phenamil] | 101
COc1ccc2c(c1)CCC1C2CCC2(C)C(NCCCCCCN3C(=O)C=CC3=O)CCC12 (configuration not stated) | 99.5
COc1ccc(-c2ccc3c(N4CCOC[C@@H]4C)nc(N4CCOC[C@@H]4C)nc3n2)cc1CO | 66.3
COC(=O)C1=C(C)NC(C)=C([N+](=O)[O-])C1c1ccccc1C(F)(F)F (configuration not stated) | 105
COc1cc(C(=O)OCCCN2CCCN(CCCOC(=O)c3cc(OC)c(OC)c(OC)c3)CC2)cc(OC)c1OC [Dilazep dihydrochloride] | 112 ± 3.6
CC(C)C[C@H](NP(=O)(O)O[C@@H]1O[C@@H](C)[C@H](O)[C@@H](O)[C@H]1O)C(=O)N[C@@H](Cc1c[nH]c2ccccc12)C(=O)O [Phosphoramidon] | 105
O=C(/C=C/C#Cc1cccc(NS(=O)(=O)c2ccccc2)c1)NO [Oxamflatin] | 105
Cc1cn[nH]c1 [Fomepizole] | 108
C[C@@H](NCCCc1cccc(C(F)(F)F)c1)c1cccc2ccccc12 [AMG-073 HCl (Cinacalcet HCl)] | 107
CC(=O)Nc1cccc(-n2c(=O)n(C3CC3)c(=O)c3c(Nc4ccc(I)cc4F)n(C)c(=O)c(C)c32)c1 | 92.6
Nc1[nH]cnc2ncnc1-2 [Adenine] | 113
Nc1[nH]cnc2ncnc1-2 [Adenine sulfate] | 94
CC[N+](C)(C)c1cccc(O)c1 [Edrophonium chloride] | 90.8

SMILES | mean cytoplasmic OPP incorporation
Cc1ccc(-c2csc3ncnc(SCCC(=O)O)c23)cc1 | 102
COc1ccc(CCN(C)CCCOc2ccc(S(=O)(=O)c3c(C(C)C)n(C)c4ccccc34)cc2)cc1OC | 114
NCCc1c[nH]cn1 [Histamine dihydrochloride] | 95.5
OC(Cn1cncn1)(Cn1cncn1)c1ccc(F)cc1F [Fluconazole] | 95.5
CCCOc1cc(N)ccc1C(=O)OCCN(CC)CC [Propoxycaine hydrochloride] | 99
CC(=O)OCC(=O)[C@@]1(O)CC[C@H]2[C@@H]3CCC4=CC(=O)CC[C@]4(C)[C@H]3[C@@H](O)C[C@@]21C [Cortisol acetate] | 98
CC(C)c1c(C(=O)Nc2ccccc2)c(-c2ccccc2)c(-c2ccc(F)cc2)n1CC[C@@H](O)C[C@@H](O)CC(=O)O [Atorvastatin] | 106
Cc1ncc(C[n+]2csc(CCO)c2C)c(N)n1 [Thiamine hydrochloride] | 101
CCN[C@H]1CN(CCCOC)S(=O)(=O)c2sc(S(N)(=O)=O)cc21 [Brinzolamide] | 105
CC(C)Oc1ccc(-c2c[nH]cc2CN(C)CCN)cc1 | 100
NS(=O)(=O)c1cc(C2(O)NC(=O)c3ccccc32)ccc1Cl (configuration not stated) [Chlorthalidone] | 96
C=CC(N)CCC(=O)O (configuration not stated) [Vigabatrin] | 95.4
CC(C)(C)c1cnc(CSc2cnc(NC(=O)C3CCNCC3)s2)o1 | 75.6
CCCCCCCCCCCCCCCC(=O)OC/C=C(C)/C=C/C=C(C)/C=C/C1=C(C)CCCC1(C)C [Retinyl palmitate] | 92.4
CC(=O)OCC(=O)[C@@]1(O)CC[C@H]2[C@@H]3CCC4=CC(=O)CC[C@]4(C)[C@@]3(F)[C@@H](O)C[C@@]21C [Fludrocortisone acetate] | 91.8
CC(=Cc1ccc(C(=O)O)cc1)c1ccc2c(c1)C(C)(C)CCC2(C)C | 101.8 ± 0.51
COC(=O)C1=C(C)NC(C)=C(C(=O)OCCCN2CCC(c3ccccc3)(c3ccccc3)CC2)[C@@H]1c1cccc([N+](=O)[O-])c1 [(R)-(-)-Niguldipine hydrochloride] | 115
COC(=O)Nc1nc2cc(C(=O)c3cccs3)ccc2[nH]1 [Nocodazole] | 88.3 ± 8.4
Cc1ccc(C(=O)c2ccc(CC(=O)O)n2C)cc1 [Tolmetin sodium salt dihydrate] | 98
CCCCN(CCCC)CCCOC(=O)c1ccc(N)cc1 [Butacaine] | 105
O=C(O)CN1C(=O)c2cccc3cccc(c23)C1=O [Alrestatin] | 96.7
